Consider 167 variants from the RNAGym collection of RNA variant scans (doi:10.7554/elife.90254).

The source gives no read counts; variants with many changes may rest on few reads.

B1: LINE1-full (parent)
chain: UACGUAGGUGGUUUUCCCCUGAUAGUGCUAAGGGGGCCUGGAAGUUUGGACUGGGCAGAGCUCAACACAGCGUGGCAAAGUGGCUGUGGCUAGACUGCCUCUCUGGAUUCCUCGUCACUCAGCAGGGCAUCUCUGAGAGAAAUGCC

In this series the parent is B1. Nature of the series: self-cleavage, relative activity (ratio to wild type); higher = more cleavage; in vitro, sequencing; the parent is a self-cleaving ribozyme.
U12C A77G A121C U134G: the self-cleavage worked out at 2.22.
With U12C U23C A59U the figure was 1.29; with U12C G32C A64G, 1.17; with G10A U26C A121G, 1.11.
The value for U12C U20A U62A A64U A141G was 0.09; that for U12C C51A U52A U130A A142U was 1.24; that for U12A G54A A77G was 1.6.
With U12A A57G U132C the figure was 0.57.
Turning to U9G U119A A136G, the self-cleavage is 0.71.
With U12C A78U A124G the figure was 1.89; with U9G U12C A140G, 1.03; with U12C C38U A78C A142G, 1.88.
With U12C U45G A64G U109C A117U, the self-cleavage was determined as 0.
For U12A A43G A124G, the self-cleavage stood at 1.59.
As to G10A U12C U45A A142G C146U, the self-cleavage came out at 1.29.
The value for U12A A22G A57G was 0.97; that for U12C U46C G122U A141G was 1.24; that for G11A U15C A142G was 1.24.
For the variant G10A U15C A77G A79G, the self-cleavage came to 0.61.
Regarding G10U A22G G53U U102C U130C, the self-cleavage was 1.97.
With U12C U15C U47C C95U A121G the figure was 1.08.
The value for U9G A79G U81G A121U A138U was 0.54; that for U12A A94C A107U G127A was 0.05; that for G11A A50G U52A U73C was 2.12.
As for U12A A69G U85C, the self-cleavage was 1.84.
The value for G10A G21A A59U G88A U109G A121G was 0; that for U12C U45C A57U A59G U62C was 0; that for U12C U15A A22G was 1.06.
With U12C G88A C116U the figure was 0.06.
With U9G U20C U102A A107U A142G the figure was 0.88.
For the variant U12A C66A A140C, the self-cleavage amounted to 0.12.
With U12C U20A U29A A50G U62A G97A A136G the figure was 0; with U12C A42G A57G U81A U87C, 0.
With U9G U12C A142G the figure was 1.23; with U12A U45C A65U, 0.1; with U12C U15C U47A, 1.59.
Turning to U12C U45A U46A A64G A77U, the self-cleavage was 0.19.
With U12C U14G A42U G125U the figure was 0.89; with U9G U12G G41A A142G, 0.59; with U12C A64G A107G, 0.32.
With U12A A67G A138G the figure was 0.33; with U12C A24U G33U C56U U62C, 0.09.
The value for G10U A64G U119C was 0.17.
Take U12C A78G U81C C111G: the self-cleavage came out at 0.
The value for U12C U15A U143C was 1.44.
With U12C U26C A57U the figure was 0.32; with U12A U14C G89A, 0.
The value for U12C A59G U62C was 0.24.
As for U9G U46C U85C A121G, the self-cleavage is 0.
With U12C A69C U73A the figure was 0.03.
With U12C U14C U62C A140G the figure was 0.18; with U12A U20C A78G U81A U87C C99U U109C C110U G137A, 0.12; with U12C G41A A79U, 1.77.
As for U12A A65G U96A, the self-cleavage was 0.05.
The value for U12C A50G G72A was 1.25; that for U12C U15C U85C was 0.
With U12C A43G U45C C51A A67G U73A U112C the figure was 0.71.
With G11A A43U U108C U109C A142G the figure was 0.82; with G10A U73C C110A, 1.87; with G11U U47C G80A U109A U115C C145G, 2.23.
Regarding U12C U39A A59U C63U, the self-cleavage was determined as 0.22.
With U12C G70U U73C the figure was 0.1; with U12C A22G A31U U104C A138U A141G, 0; with U12C U13C A67U U85A G126U A142U, 0.1.
The value for U12C U15A A64G was 0.44; that for U9G U47A A78G was 0.73.
The value for U12C U20C U23A A24U U39C G58A C116U was 0.12.
On to U12C C90U A121G G127U, for which the self-cleavage came to 0.04.
In the case of G11A A124G U134C, the self-cleavage was found to be 1.94.
The value for U12C U46A A129U was 1.91; that for U12C A57G A64U A78G was 0.21.
With U12C A42G G54A the figure was 0.95.
The value for U12C A67G U108C was 0.
With U12C G27A U104C A138G, the self-cleavage is 1.63.
The value for U9G G25A A43G U108C was 0.9; that for U12C U20C G40A was 1.31.
The value for U9G U39A U85A was 0.15.
As to G11A A64U U100A, the self-cleavage turned out to be 0.1.
The value for U9G U100C U130C U143C was 1.6; that for U12C A64G A138G was 0.38; that for U12C A77U A79G was 1.3.
On to U12C G36C A64G U96A U112A, for which the self-cleavage stood at 0.06.
With U9G C19U A65U G93C the figure was 0.3.
With U12A A24G U85A the figure was 0.2; with U12C U23C A24G A129G, 0.71; with U12C A69G U119C U134G, 1.31.
With U12C G36A G122A A124G U130C the figure was 1.43; with U12C U47A U62C U85C U115C, 0.
Take U12A U45A A124U A129G U130C: the self-cleavage came out at 2.04.
For the variant U9G U46C G58U A59U A79G, the self-cleavage is 0.18.
As for U12A U23A U91C U96A, the self-cleavage worked out at 0.05.
With U12A U47C U130C the figure was 2.45; with U12C U20C C37G U47C U115A G122A A140U, 1.39; with U12C A64G U108C G125C, 0.75.
The value for U12C A78G U102C A129G was 0.
With U9G U62C C99U the figure was 0.1.
With U12A A64U U87C A94G U119C, the self-cleavage stood at 0.
With U12C A65G G144A the figure was 0.15; with U12C C63A U96A, 0.04.
With U12C U45C G60A A136U, the self-cleavage is 0.05.
The value for U12C A92G U100C was 0.22; that for U12C A22G A50G G74A was 0.44; that for U12A U39A U130A was 0.84.
With U12C A31G G54U the figure was 0.3.
Turning to U12C U45G A50U A57C, the self-cleavage came out at 0.18.
With U12C A64G A77G G82A U85C A92U C146U the figure was 0.46.
The value for U12C G44A U96G A142G was 0.03.
With U12C U13G G86A U134C the figure was 0.36.
Regarding U12C C17U A129G, the self-cleavage came to 0.75.
The value for U12C A30C U134C was 2.02; that for U12C U15A A65G was 0.15; that for U12C C16U G135A was 0.64.
With U12C U26C U62A the figure was 0.1; with U12C A92G A129C A136G, 0.
On to G11A A22G A24G A79G C95U, for which the self-cleavage was found to be 0.3.
U12C A78U U143C: the self-cleavage stood at 1.79.
With U12A A59U A78U A142G, the self-cleavage is 1.57.
On to G10A A138G A142G, for which the self-cleavage stood at 1.93.
With U12C A22G A78G U100G the figure was 0; with G11A U47C U102C, 1.19; with U12C U13C A42G U73A A79U, 2.56.
U12C U14C U26A A43C: the self-cleavage was 0.81.
With U12C G106A A142G the figure was 1.75.
The value for U12C A78G A92G was 0.3.
With U12C A42G A67U U87C C123A A136C the figure was 0.22; with U12A U15A U23C U26A A69G, 0.44; with G11A G32U G48A, 1.41.
In the case of G10U U13C A30G A57G A77U, the self-cleavage was 1.06.
The value for U12A U26C U45G was 2.51.
Regarding U12C A79G U87C C103A U104A, the self-cleavage came out at 0.44.
The value for G10U U119A A142G was 1.18.
With U12C G53A U109C A124G the figure was 1.19.
With U12C U39A A107G the figure was 1.31; with U12C U46C A50G C56U A64G, 0.
In the case of U12C A57G U104C, the self-cleavage turned out to be 0.
With U12C A57G U104A the figure was 0.74; with U12C G25A U26A A42G U45C, 1.27.
The value for G10U A22G A107G was 1.46; that for U12C A50G A59G A141G was 1.31; that for U12C A77G G89A was 0.05.
With U12A A92G U96G A138G the figure was 1.15; with U12C U26C C61U A141G, 0.07; with G10U U20C G32A G122U A136U A142G, 1.14.
In the case of U12C G32U U104C A124G, the self-cleavage worked out at 0.92.
The value for U12C U14C G32U was 1.16; that for U12C A43G A140G was 0.69.
On to G10A U15C G40U, for which the self-cleavage worked out at 0.54.
As for U12C U29A A79G, the self-cleavage is 0.84.
For U12C U46C C95A, the self-cleavage is 0.12.
The value for U12C C95U A140G was 0.17; that for U12C U15C U20A C145A was 1.13; that for G10U U26A A43G A57G A59G was 0.
The value for G11C U20C A79U U81A A142G was 2.45; that for G10C U20C A43G U115A was 1.06.
The value for U12C A24G U104A was 0.79.
For U12C C17U U45C U52C A65G A138C, the self-cleavage is 0.
As for U12C C16U U20C U62A U100C, the self-cleavage was determined as 0.28.
In the case of G10A A67G A78G, the self-cleavage stood at 0.21.
The value for U12C G126U U130C A141G was 1.69; that for U12C A69G A117G was 0.
The value for U12A U26A A50G A79G A124U was 0.32.
With U12C A22U U39C U119C A141G the figure was 0.
As to U12A U52C U143A, the self-cleavage is 1.26.
Take U12A A77G G137U: the self-cleavage was found to be 1.93.
Take U12C A59G U62A G72A: the self-cleavage is 0.09.
With U12C A77U A107G A124G A141G the figure was 1.25; with U12C U20C G32A, 1.23.
